This is one part of the list. Shown are side measurements of this screen, not its main read-out; they come without a call. For part of these data: Compounds called inactive in the main read-out are mostly missing here. Potencies come from curve fits of mixed quality, noted in brackets.
Legend:
[1] = qHTS drug screen for cell cycle checkpoint inhibitors in PARPi-resistant BRCA-mutant ovarian cancer cell lines. (AID 1963452); conditions: PEO1/OlaR viability, CellTiter-Glo luminescence, 96 h
Outline: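 PEO1, PEO4 and PEO1/OlaR ovarian cancer cells, 600 per well, exposed 96 h at 37C to a dilution series. Viability read by CellTiter-Glo luminescence, normalized to DMSO and empty wells; activity summarized as Z-AUC.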

[2] = qHTS for identification of novel therapeutic agents for treatment of microphthalmiaassociated transcription factor (MiT) renal cell carcinoma (RCC) (AID 1963991); conditions: CellTiter-Glo, 48 h; for z-score: stronger effect = lower value
Outline: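 Three TFE3-fusion RCC cell lines (UOK109, UOK124, UOK145), 500 cells/well, were exposed to the 1912-compound MIPE 4.0 library for 48 hours at 37 C. Viability was read by CellTiter-Glo luminescence, normalised to DMSO (100%) and empty wells (0%), with 11-concentration curve fits.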

[3] = measured here: PEO1 parental viability
[4] = TFE3-RCC viability, measured here: UOK124 cell viability
[5] = TFE3-RCC viability, measured here: UOK145 cell viability
Tags give direction and shape of the fitted curve.

Question: With `CS(=O)(=O)N1CCN(Cc2cc3nc(-c4cccc5[nH]ncc45)nc(N4CCOCC4)c3s2)CC1` as the compound, how does the AC50 [1, 3] read?
Answer: Its AC50 is 6920 nM [falling, partial curve].

Question: What about the AC50 ([1]; measured here: PEO4 viability) of the same compound?
Answer: The AC50 was 4900 nM [falling, partial curve].

Question: And the AC50 [2, 4]?
Answer: The AC50 was 9350 nM [falling, partial curve].

Question: And the AC50 [2, 5]?
Answer: Its AC50 is 1320 nM [falling, full curve].

Question: Which results are given for `O=C(O)Cc1cccc(OCCCN(Cc2cccc(C(F)(F)F)c2Cl)CC(c2ccccc2)c2ccccc2)c1`?
Answer: AC50 [1, 3]: 27500 nM [falling, single point]; AC50 ([1]; measured here: PEO4 viability): 27500 nM [falling, single point]

Question: Which AC50 [1, 3] does the source give for `Nc1nc(F)nc2c1ncn2[C@@H]1O[C@H](CO)[C@@H](O)[C@@H]1O` here?
Answer: Its AC50 is 6920 nM [falling, partial curve].

Question: And the AC50 ([1]; measured here: PEO4 viability)?
Answer: Its AC50 is 3470 nM [falling, full curve].

Question: And the AC50 [2, 4]?
Answer: Its AC50 is 662 nM [falling, full curve].

Question: What about the AC50 [2, 5] of the same compound?
Answer: Its AC50 is 372 nM [falling, full curve].

Question: What does the source list for `Cc1ccc(-c2ncn(-c3ccc(Nc4nccc(-c5cccc(N6CCOCC6)c5)n4)cc3)n2)cn1`?
Answer: AC50 [1, 3]: 1230 nM [falling, partial curve, poor fit]; AC50 ([1]; measured here: PEO4 viability): 1230 nM [falling, full curve]; AC50 [2, 4]: 148 nM [falling, full curve]; AC50 [2, 5]: 332 nM [falling, full curve]

Question: Which AC50 [1, 3] does the source give for `Cc1ccc(C2=Nc3ccc(Cl)cc3OC2)cc1` here?
Answer: Its AC50 is 11000 nM [falling, partial curve].

Question: And the AC50 ([1]; measured here: PEO4 viability)?
Answer: The AC50 was 13800 nM [falling, single point].

Question: And the z-score ([2]; TFE3-RCC UOK109 viability, measured here: UOK109 Z-AUC)?
Answer: The z-score was 0.85.

Question: What about the z-score ([2]; TFE3-RCC viability, measured here: UOK124 Z-AUC) of the same compound?
Answer: The z-score was 0.186.

Question: What about the z-score ([2]; TFE3-RCC viability, measured here: UOK145 Z-AUC) of the same compound?
Answer: The z-score was 0.756.

Question: Which AC50 [1, 3] does the source give for `C[C@@H](Oc1cc(-n2cnc3ccc(CN4CCN(C)CC4)cc32)sc1C(N)=O)c1ccccc1C(F)(F)F` here?
Answer: Its AC50 is 13.8 nM [falling, full curve, poor fit].

Question: And the AC50 ([1]; measured here: PEO4 viability)?
Answer: The AC50 was 15.5 nM [falling, full curve].

Question: And the AC50 [2, 4]?
Answer: The AC50 was 4180 nM [falling, partial curve].

Question: What about the AC50 [2, 5] of the same compound?
Answer: The AC50 was 2640 nM [falling, full curve].

Question: With `CCC[C@H](Nc1nc(-c2ccc(NC(=O)NCC)c(OC)c2)ncc1C)c1cccnc1` as the compound, how does the AC50 [1, 3] read?
Answer: The AC50 was 9.8 nM [falling, full curve].

Question: What about the AC50 ([1]; measured here: PEO4 viability) of the same compound?
Answer: The AC50 was 9.8 nM [falling, full curve].

Question: What about the AC50 [2, 4] of the same compound?
Answer: The AC50 was 5.9 nM [falling, full curve].

Question: What about the AC50 [2, 5] of the same compound?
Answer: The AC50 was 37.2 nM [falling, full curve].

Question: Which AC50 [1, 3] does the source give for `COC[C@H](NC(=O)c1cnc(C)s1)C(=O)N[C@@H](COC)C(=O)N[C@@H](Cc1ccccc1)C(=O)[C@@]1(C)CO1` here?
Answer: The AC50 was 61.6 nM [falling, full curve].

Question: What about the AC50 ([1]; measured here: PEO4 viability) of the same compound?
Answer: Its AC50 is 27.5 nM [falling, full curve].

Question: And the AC50 [2, 4]?
Answer: Its AC50 is 5260 nM [falling, partial curve].

Question: And the AC50 [2, 5]?
Answer: Its AC50 is 187 nM [falling, full curve].

Question: Which AC50 [1, 3] does the source give for `c1ccc2c(-c3cnn4cc(-c5ccc(N6CCNCC6)cc5)cnc34)ccnc2c1` here?
Answer: Its AC50 is 3090 nM [falling, full curve].

Question: What about the AC50 ([1]; measured here: PEO4 viability) of the same compound?
Answer: Its AC50 is 3090 nM [falling, full curve].

Question: And the AC50 [2, 4]?
Answer: Its AC50 is 2640 nM [falling, full curve].

Question: And the AC50 [2, 5]?
Answer: Its AC50 is 9350 nM [falling, partial curve, poor fit].

Question: With `COCCn1c2c([n+](Cc3cnccn3)c1C)C(=O)c1ccccc1C2=O` as the compound, how does the AC50 [1, 3] read?
Answer: Its AC50 is 17.4 nM [falling, full curve].

Question: What about the AC50 ([1]; measured here: PEO4 viability) of the same compound?
Answer: Its AC50 is 13.8 nM [falling, full curve].

Question: What about the AC50 [2, 4] of the same compound?
Answer: The AC50 was 74.3 nM [falling, full curve].

Question: What about the AC50 [2, 5] of the same compound?
Answer: Its AC50 is 59 nM [falling, full curve].

Question: With `CNC(=O)Nc1ccc(-c2nc(N3CC4CCC(C3)O4)c3cnn(C4CCC5(CC4)OCCO5)c3n2)cc1` as the compound, how does the AC50 [1, 3] read?
Answer: Its AC50 is 871 nM [falling, partial curve].

Question: And the AC50 ([1]; measured here: PEO4 viability)?
Answer: The AC50 was 1380 nM [falling, partial curve].

Question: What about the AC50 [2, 4] of the same compound?
Answer: Its AC50 is 16.6 nM [falling, full curve].

Question: And the AC50 [2, 5]?
Answer: The AC50 was 18.7 nM [falling, full curve].

Question: With `O=C(Nc1ncc(-c2cc(C(F)F)nn2-c2c(Cl)cccc2Cl)s1)C1CC1` as the compound, how does the AC50 [1, 3] read?
Answer: Its AC50 is 776 nM [falling, full curve].

Question: What about the AC50 ([1]; measured here: PEO4 viability) of the same compound?
Answer: Its AC50 is 1100 nM [falling, full curve].

Question: What about the AC50 [2, 4] of the same compound?
Answer: The AC50 was 526 nM [falling, full curve].

Question: What about the AC50 [2, 5] of the same compound?
Answer: The AC50 was 264 nM [falling, full curve].

Question: What does the source list for `COc1ccc(-c2ccc3ncc4c(c3c2)n(-c2ccc(N3CCNCC3)c(C(F)(F)F)c2)c(=O)n4C)cn1`?
Answer: AC50 [1, 3]: 27.5 nM [falling, full curve]; AC50 ([1]; measured here: PEO4 viability): 17.4 nM [falling, full curve]; AC50 [2, 4]: 743 nM [falling, full curve]; AC50 [2, 5]: 2960 nM [falling, partial curve]

Source: PubChem BioAssay (NCATS)
